Data from the BET-seq Pho4 binding data (Le et al. 2018).
The other results are listed elsewhere or left out. The energies were worked out here from pooled read counts, against the library average; single values are noisy.

target: T1, Pho4 (S. cerevisiae) (UniProt P07270); assay: relative binding free energy (BET-seq); higher = weaker binding; conditions: reference: library average
T1 sequence: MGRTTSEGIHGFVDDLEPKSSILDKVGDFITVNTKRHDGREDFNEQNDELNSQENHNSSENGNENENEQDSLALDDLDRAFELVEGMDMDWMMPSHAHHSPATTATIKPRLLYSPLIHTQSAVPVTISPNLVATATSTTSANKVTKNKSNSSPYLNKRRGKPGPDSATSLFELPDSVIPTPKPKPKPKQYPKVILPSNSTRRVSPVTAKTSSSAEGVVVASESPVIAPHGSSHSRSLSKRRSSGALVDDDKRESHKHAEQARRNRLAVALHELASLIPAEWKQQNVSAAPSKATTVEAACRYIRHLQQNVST

Sequence | relative binding free energy [kcal/mol]
CTGAGCACGTGTTGGG | -0.09
GGTCGCACGTGGGGCA | -0.3
AGGGGCACGTGCTATA | -0.29
GGACTCACGTGTCGGT | 0.3
AGGGGCACGTGGGGGC | -0.23
TAGGACACGTGGGAGT | -0.01
ATGGTCACGTGCTGAA | 0.23
TGTACCACGTGTTATG | -0.04
GATATCACGTGGGTTG | -0.06
TGACTCACGTGTTAGG | 0.14
TTTAGCACGTGCGAGT | -0.01
TGTTGCACGTGTGAGC | 0.07
GGGGCCACGTGTACGG | 0.03
GGGCGCACGTGTAGTA | -0.02
TGTTCCACGTGTGATT | 0.08
GTTTTCACGTGCTGTG | 0.22
AGGAACACGTGCTTGG | 0.12
TCGGGCACGTGTTGGA | 0.01
ATTTGCACGTGTGATC | 0.15
GTAGACACGTGTTGAG | -0.03
GCCGTCACGTGGGTTA | 0.05
GGTCACACGTGGGGAA | 0.07
GGATACACGTGCAGGG | 0.04
ATGGGCACGTGGGGGT | -0.17
GGGCTCACGTGCGGAG | 0.21
GATGTCACGTGGTTGG | 0.13

Sequence | relative binding free energy [kcal/mol]
CGGGGCACGTGAACGG | -0.01
GGTTGCACGTGATTAC | 0.2
TGTATCACGTGATGGA | 0.23
GGAGCCACGTGCTGGG | -0.06
TGTATCACGTGTGCAG | 0.09
TTGGACACGTGGCTTG | -0.11
TTATGCACGTGGGCAG | -0.17
AGTGTCACGTGTAGCA | -0.09
GCGTTCACGTGTAATT | 0.38
CCTTGCACGTGTTGTG | -0.14
TTGCGCACGTGCGTTG | -0.08
TTTAGCACGTGTCAAG | 0.15
AAGTGCACGTGAGTTA | 0.07
GGAGCCACGTGTGAGG | -0.05
GATTTCACGTGGAAGG | 0.28
GGTTACACGTGCGTGA | 0.09
CGTGGCACGTGACGGG | 0.02
GTTAACACGTGATTTG | 0.28
AATGGCACGTGCCGGG | -0.25
CGTGTCACGTGGCGTG | 0.01
GTGTTCACGTGGGCTC | 0.16
ATATGCACGTGAGGTC | 0.06
GTCCGCACGTGGTGAG | 0.03
CTGTTCACGTGTGTTT | 0.36
TAGGTCACGTGTGTTA | 0.07
GGAAACACGTGGTTTT | -0.12

Sequence | relative binding free energy [kcal/mol]
GATGTCACGTGTAGGG | 0.25
GGGGCCACGTGAGTGA | 0.22
TACGTCACGTGGGGAT | -0.12
GATTTCACGTGGTGTT | 0.39
TGTCTCACGTGGTAGC | 0.14
CTTGGCACGTGGGCCG | -0.21
GTTTGCACGTGGGGTA | -0.11
TGTGGCACGTGTCTAG | -0.19
GTTTTCACGTGTATAC | 0.23
TAGAACACGTGTAATG | 0.08
GGAGTCACGTGTAGTG | 0.28
GATATCACGTGGGGAT | 0.15
CTTGCCACGTGTAGGT | -0.01
ATTTGCACGTGGCAAG | 0.02
GATTACACGTGAATTT | 0.52
CAAGTCACGTGGTCGG | 0.03
TTAGTCACGTGAGAGG | 0.25
TGTATCACGTGTCGTG | 0.14
GAAGACACGTGGTGGG | 0.05
ACCTGCACGTGTGTGG | -0.12
GGGGGCACGTGGAACG | -0.11
GGGGGCACGTGCGATT | -0.06
GGATTCACGTGTGTTC | 0.2
CGATACACGTGATTGG | 0.18
TGGTGCACGTGTCAGA | 0.06
TGTCGCACGTGCTAGG | -0.08

Sequence | relative binding free energy [kcal/mol]
ATCGTCACGTGAGAGT | 0.2
TGGTGCACGTGGCAGT | -0.13
GTCGGCACGTGCGGTG | -0.1
TGCGTCACGTGTGGCA | -0.01
TTTAGCACGTGAATCG | 0.36
CGTTTCACGTGGCGTT | 0.25
AGGAGCACGTGGGGCC | -0.21
TTCTCCACGTGGGGTT | -0.13
TTGTTCACGTGTTTAG | 0.19
AGTCGCACGTGGGGGG | -0.17
TTAGACACGTGTTTGC | -0.03
GTATTCACGTGGTACA | 0.08
AGTAGCACGTGATGTG | -0.1
CGTCTCACGTGAATGT | 0.63
TGGGACACGTGGCTTT | 0.01
AGGGTCACGTGTTCGG | 0.14
GAGAGCACGTGGCAGG | -0.16
CTTGTCACGTGAGTTG | 0.35
GTTCCCACGTGGTGTT | -0.09
AATTGCACGTGGTTGT | -0.08
CTGGGCACGTGCGTGC | -0.09
ATGGACACGTGGCTTG | -0.12
GTTTACACGTGGAGGC | 0.14
TCGGTCACGTGATATA | 0.24
TAAAGCACGTGCGTGT | -0.07
ACTGGCACGTGGGGGG | -0.23

Sequence | relative binding free energy [kcal/mol]
TGGGTCACGTGCTGAA | 0.08
TATATCACGTGTCTTG | 0.23
TTGAGCACGTGTCGTA | -0.11
AGGCTCACGTGGTTTG | 0.05
AAAGTCACGTGGTATC | 0.13
CTGTACACGTGATGTT | 0.24
TGGTACACGTGAAGGC | 0.45
TCGGACACGTGATGTG | 0.21
TGGTACACGTGTTCTA | 0.05
GGTAGCACGTGTGGCC | 0.07
CAAGTCACGTGGGTAT | 0.02
CGTTGCACGTGGGAAG | -0.03
TTTATCACGTGATTGT | 0.3
TAGGACACGTGCGGGT | -0.03
TTCGTCACGTGGGATT | -0.06
TGTTGCACGTGGAATG | 0.09
GAGGGCACGTGTGGTT | 0.01
TTGGCCACGTGGCTTT | -0.14
TTGAGCACGTGACGAG | 0.1
GTGGTCACGTGGAAGT | 0.19
ACGATCACGTGGTTGT | 0.13
TGGCACACGTGGTTAT | -0.04
TGCGGCACGTGGAGTA | -0.09
ATGTTCACGTGCATAG | 0.19
TAAGGCACGTGTATTG | -0.09
ATTTACACGTGTTAAA | 0.03

Sequence | relative binding free energy [kcal/mol]
GGGCGCACGTGATGGG | 0.2
GAAGGCACGTGCTGGT | -0.14
GTATTCACGTGCTGTG | 0.41
GGTGTCACGTGTATTA | 0.11
GGGAGCACGTGTGTAC | 0.03
TTTATCACGTGGCGAG | -0.08
ATATACACGTGATTTG | 0.16
TAATTCACGTGGTAAA | 0.11
TGGTTCACGTGCCGTA | 0.32
GTATTCACGTGGCCTG | 0.25
TGTAGCACGTGGAGGT | -0.06
GAAGGCACGTGGTTAG | -0.14
TATTACACGTGTCAGG | 0.13
CTTTTCACGTGGGATG | 0.14
AGGCCCACGTGGGGTA | -0.17
GGGAGCACGTGCGTGC | -0.09
ATGTTCACGTGGAGAT | 0.14
GATGTCACGTGATTTA | 0.3
ATCTGCACGTGTTTTT | -0.07
CGTGTCACGTGCGTTT | 0.08
GGAGTCACGTGGACGT | 0.17
TTGGTCACGTGCGGTG | 0.06
ACGGACACGTGGAGGG | -0.07
TATATCACGTGATGAA | 0.29
TGGGTCACGTGAATGC | 0.25
GGAGACACGTGCTGGG | -0.08

Sequence | relative binding free energy [kcal/mol]
GCTATCACGTGAAGTT | 0.5
GTAGGCACGTGTTTGA | -0.07
GGCGTCACGTGTTGAA | 0.18
GATGGCACGTGAAGGG | 0.16
TTGGCCACGTGGATTG | -0.02
CATTGCACGTGTTAGT | 0.05
AAGTTCACGTGGAGGA | 0.31
TTGGTCACGTGTTAAA | 0.06
AGGTTCACGTGTTAGT | 0.26
TAAGTCACGTGGGCGG | -0.03
GGAATCACGTGTGGCG | 0.21
AGTGGCACGTGAGGGT | 0.1
GTCTTCACGTGGGGAA | 0.15
TTGTGCACGTGGCTCG | -0.15
ATCGGCACGTGGTCTG | -0.14
CATGGCACGTGTAAGT | 0.11
TGTAGCACGTGAAGGG | 0.26
TGGGGCACGTGGAGGT | -0.03
CGCTGCACGTGGTGGT | -0.19
GACGTCACGTGTGCGG | 0.13
ATTATCACGTGAGGCG | 0.26
AGCATCACGTGTGTGG | -0.05
GATTGCACGTGGTGCG | -0.04
TGTGGCACGTGTCCAG | -0.16
AGGAACACGTGCGGGG | -0.06
GGTATCACGTGTGAGA | 0.19

Sequence | relative binding free energy [kcal/mol]
TTATTCACGTGCCGTG | 0.28
AATAGCACGTGTCGTG | -0.05
ATTTGCACGTGAAGTA | 0.11
ACTTGCACGTGTGAGT | 0.11
AAGGACACGTGTGGTC | 0.05
TTGGACACGTGCGCGT | -0.18
TGCGTCACGTGATATT | 0.17
TTGAACACGTGTTCGG | -0.07
AGGTGCACGTGAGTTG | 0.1
CTGGTCACGTGCGTTG | 0.04
GACGGCACGTGGTGAG | -0.02
GGGTACACGTGTGCTA | 0.05
TGCGGCACGTGGCATT | -0.14
GAATTCACGTGTCTGT | 0.37
TATTTCACGTGTCCGG | 0.43
GGGATCACGTGAGGTT | 0.43
TCGGGCACGTGTTAAG | 0.07
GCGGACACGTGTCGGT | 0.19
TTGAGCACGTGTCGAG | -0.07
CTTGGCACGTGATAAG | -0.07
ACGGTCACGTGGTTAT | 0.15
TGTAACACGTGGTTCT | -0.17
AGGATCACGTGCGGGA | 0.11
TGGTTCACGTGTCGAT | 0.2
GGCAGCACGTGGGAGG | -0.21
GACCTCACGTGTGGGT | 0.27

Sequence | relative binding free energy [kcal/mol]
TGAATCACGTGGAGGT | 0.13
TCTATCACGTGTCGTT | 0.18
CGTAGCACGTGTGAGA | 0.1
GGTGGCACGTGGTGAG | -0.02
CGAATCACGTGATGGG | 0.45
TGTTTCACGTGTTCAA | 0.29
GGTGGCACGTGTTGTC | 0.08
AGTAGCACGTGTCTGT | -0.15
TTGGACACGTGAATTA | 0.39
ATATGCACGTGTTATG | 0
AAGTGCACGTGAGTTC | 0.31
TTTTGCACGTGTCGGC | 0.13
AATTACACGTGATGTA | 0.17
TTAGGCACGTGTATTG | -0.05
AGGATCACGTGCTTGT | 0.19
TAGTTCACGTGTGGCC | 0.34
GTCAGCACGTGTTATG | 0
GTCAGCACGTGAGGGT | 0.22
TATTGCACGTGCGTCT | -0.13
GGTACCACGTGGAAGT | 0.09
GGTCGCACGTGCGGTA | -0.09
ATTTACACGTGGGTCA | 0
